According to PubChem BioAssay AID1346428 (National Center for Advancing Translational Sciences (NCATS), 2018):
Where “and” joins values, the source holds several entries; their conditions need not be identical. Identical values can stand only once. Among all 48,000 compounds or so, about 1,200 (2.5%) were called active. Roughly 2% stayed inconclusive and do not appear here.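 The calls were made as follows: active = activation of at least 60% and not above a set upper limit (about 1 call in 100 departs from these limits); inconclusive = activation of 40% to 60%, or above that upper limit; inactive = activation under 40%.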 The list shows a part of the results.

biological target: Probable G-protein coupled receptor 32 (Homo sapiens) (UniProt O75388); assay: qHTS for Agonists of Human Resolvin D1 Receptor DRV1; details: CHO-K1 GPR32 beta-arrestin PathHunter luminescence, 90 min; at 76.9 µM; active compounds read high; zero percent set by DMSO-only wells; also: 0% is about no effect
Sequence of UniProt O75388 (O75388 whole entry, looked up): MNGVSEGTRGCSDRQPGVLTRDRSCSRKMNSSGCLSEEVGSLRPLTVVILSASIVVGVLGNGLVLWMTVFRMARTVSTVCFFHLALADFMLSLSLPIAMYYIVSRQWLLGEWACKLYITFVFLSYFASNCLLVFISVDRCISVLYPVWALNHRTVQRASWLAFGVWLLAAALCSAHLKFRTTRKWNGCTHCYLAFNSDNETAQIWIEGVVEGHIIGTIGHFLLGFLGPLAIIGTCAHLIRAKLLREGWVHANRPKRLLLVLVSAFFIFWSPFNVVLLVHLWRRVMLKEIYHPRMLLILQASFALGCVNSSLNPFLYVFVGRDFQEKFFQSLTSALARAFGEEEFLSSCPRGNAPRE
Method in brief: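 Luminescent readout of beta-Gal complementation quantifies ligand-induced beta-arrestin association with GPR32 in CHO-K1 cells; 90 min compound incubation at 37 °C, detection 1 h at room temperature.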

activation, inactive:
Cc1ccc(C(=O)Nc2ccc(C(=O)OCc3cc(=O)n4ccsc4n3)cc2)cc1 -9.87%, CCN(CC)S(=O)(=O)c1ccc2c(c1)N(CC(=O)N(C)Cc1ccccc1)C(=O)CO2 -14.4%, Cc1ccc(Cn2cc(CCC(=O)NCc3ccccc3F)c3ccccc32)cc1 -13.2%, COC(=O)c1ccc(NC(=O)Cn2nc(C(=O)Nc3ccc(C)cc3)ccc2=O)cc1 -8.64%, Cc1ccc(NC(=O)Cn2c(CCC(=O)O)ccc2-c2ccc(Cl)cc2)cc1 -28.1%, COc1ccc(-c2[nH]c3c(c2-c2c(-n4cccc4)n(C)c(=O)n(C)c2=O)c(=O)n(C)c(=O)n3C)cc1 3.98%, O=C(CNC(=O)c1ccc(Cl)cc1)OCc1cc(=O)n2ccsc2n1 0.499%, CCC1CN(C(=O)N2CCC(C(=O)NCCC3=CCCCC3)CC2)c2cc(C)ccc2O1 (configuration not stated) -21.7%, Cc1cccc(OCC(=O)Nc2ccc(-c3nc4cc(C)ccc4o3)c(O)c2)c1 -5.87%, COc1ccc(S(=O)(=O)N(CC(=O)N(C)Cc2ccccc2)c2ccc(Cl)cc2)cc1 -11.3%, CCn1cc2nc(SCc3ccc(C)cc3)n(CCc3ccccc3)c(=O)c2n1 -5.97%, COc1ccc(NC(=O)CSc2nnc(NC(=O)Nc3ccccc3)s2)c(OC)c1 -6%, COc1cc(Cc2cnc(N)nc2N)cc(OC)c1OC -3.5% and -3.9%, NC(=O)C(=O)O -6.62%, CCc1ccc(NC(=O)CSc2nc3ccccc3nc2Cc2ccccc2OC)cc1 -21.6%, CCOC(=O)c1ccc(NC(=O)c2c(NCc3sccc3C)sc3c2CCCCC3)cc1 -16.5%, CC(C)(C)c1ccc(C(=O)NC(Cc2c[nH]c3ccccc23)C(=O)OCC(=O)c2ccccc2)cc1 (configuration not stated) -14%, Cc1cc(C)cc(NC(=O)N2CCN3CCCCC3C2)c1 (configuration not stated) -3.89%, CC1CCCN(c2cc3c(cc2F)c(=O)c(S(=O)(=O)c2cccc(Cl)c2)cn3C)C1 (configuration not stated) -12.1%, COc1ccc(Cn2c(=O)[nH]c3cc(C(=O)N4CCN(c5cccc(OC)c5)CC4)ccc3c2=O)cc1 -1.16%, Cn1cc(C(=O)NCc2ccc(Cl)cc2)c(=O)c2cc(S(=O)(=O)N3CCCCCC3)ccc21 24.4%, COc1ccc(CC(=O)Nc2c(C(=O)Nc3ccc(F)cc3)oc3ccccc23)cc1OC 0.375%, COc1ccc(OC)c(CCNC(=O)CN2C(=O)COc3ccc(S(=O)(=O)N4CCC(C)CC4)cc32)c1 -2.3%, CCCCNc1nc(Oc2ccc(OCCC)nn2)nc(N(C)C)n1 5.9%, COc1ccc(-c2nc3ccccc3o2)cc1NC(=O)CSc1ccc(Cl)cc1 -6.92%, O=C(CCSCc1ccccc1F)N1CCN(c2ccc(Cl)cc2)CC1 -24.6%, Cc1nn(-c2ccc(N3CCCC3)nn2)c(C)c1CCC(=O)NCc1ccccc1F -8.34%, CCC1CCCCN1CCCNC(=O)c1c(O)nc2c(C)cccn2c1=O (configuration not stated) -3.04%, CCOc1ccccc1NC(=O)c1sc2nc(-c3ccc(OC)cc3)ccc2c1N 1.75%, CCCN1CCN(CCNC(=O)Nc2cc(C)ccc2OC)CC1 -2.49%, CCOC(=O)c1ccc(NC2=CC(c3ccc(O)c(OCC)c3)N(c3ccc(C(=O)OCC)cc3)C2=O)cc1 (configuration not stated) 5.34%, COc1cc2c(C(=O)Nc3ccc(C)cc3Br)cn(C)c(=O)c2cc1OC 5.49%, COc1ccc(-n2c(/C=C/c3cccc4ccccc34)nc3ccccc3c2=O)cc1Cl 0.242%, O=C(Cc1ccc(F)cc1)N1CCC(c2nc3c(nnn3Cc3ccc(F)cc3)c(=O)[nH]2)CC1 -11.7%, Cc1ccccc1C(=O)Nc1nnc(S(=O)(=O)N(C)Cc2ccc(Cl)cc2)s1 10.9%, Cc1ccc(CNC(=O)c2nc(-c3ccc(Cl)cc3)n3c2CCCCC3)cc1 -38.5%, N#Cc1ccccc1Cn1c(=O)n(CCCCC(=O)NCc2ccc3c(c2)OCO3)c(=O)c2ccccc21 -6.01%, O=C(NCCSCc1ccccc1Cl)C1CCN(S(=O)(=O)Cc2ccccc2)CC1 41.4%, COc1ccc(OCC(=O)Nc2ccc(O)c(-c3nc4ccccc4s3)c2)cc1 2.8%

activation, active:
COc1ccccc1N1CCN(c2ncnc3c2nc2n3CCCC2)CC1 63.5%, Cc1ccc(OCC(=O)Nc2ccc(Cl)c(-c3nc4ccccc4[nH]3)c2)cc1C 70.6%, O=C(NC1CCCCC1)c1c[nH]c2ccc(S(=O)(=O)Nc3ccccc3F)cc2c1=O 101%
